# Assay results: paper PMC5805785, “Site-specific phosphorylation of TRANSPARENT TESTA GLABRA1 mediates carbon partitioning in Arabidopsis seeds” (Nature Communications, 2018)
# Positions count from the first letter of the chain named. No constants are given. Whether binding was seen depends on the method and setting. For some assays here: Binding seen in cells or lysates may run through a third protein. Some results given as binding are weak or reduced against the parent protein; the word gives no strength. Sequences can lack the tags named with a protein.
# B1: TT2-GFP (protein, UniProt Q9FJA2 1-258)
# chain: MGKRATTSVRREELNRGAWTDHEDKILRDYITTHGEGKWSTLPNQAGLKRCGKSCRLRWKNYLRPGIKRGNISSDEEELIIRLHNLLGNRWSLIAGRLPGRTDNEIKNHWNSNLRKRLPKTQTKQPKRIKHSTNNENNVCVIRTKAIRCSKTLLFSDLSLQKKSSTSPLPLKEQEMDQGGSSLMGDLEFDFDRIHSEFHFPDLMDFDGLDCGNVTSLVSSNEILGELVPAQGNLDLNRPFTSCHHRGDDEDWLRDFTC
# B2: TT2-His (natural protein, Arabidopsis thaliana, UniProt Q9FJA2 1-258, looked up)
# chain: B1 chain
# notes: TRANSPARENT TESTA2 (TT2; MYB123), Arabidopsis thaliana; cDNA cloned into pET28a; also called MYB123; source: E. coli Rossetta (DE3), IPTG-induced, soluble fusion protein
# B3: TT2 fused to nYFP (protein, UniProt Q9FJA2 1-258)
# chain: B1 chain
# Assays:
# [1] = molecular target: T1, 4HA-TTG1 (Arabidopsis thaliana) (UniProt Q9XGN1); assay: co-IP; total protein extracts of transgenic Arabidopsis siliques 4 days after pollination; anti-HA agarose beads, 4 °C, 2 h; 50 mM Tris-HCl pH 7.5, 150 mM NaCl, 1 mM EDTA, 5% glycerol, 0.5% Triton X-100; blot with anti-GFP and anti-HA
# T1 sequence: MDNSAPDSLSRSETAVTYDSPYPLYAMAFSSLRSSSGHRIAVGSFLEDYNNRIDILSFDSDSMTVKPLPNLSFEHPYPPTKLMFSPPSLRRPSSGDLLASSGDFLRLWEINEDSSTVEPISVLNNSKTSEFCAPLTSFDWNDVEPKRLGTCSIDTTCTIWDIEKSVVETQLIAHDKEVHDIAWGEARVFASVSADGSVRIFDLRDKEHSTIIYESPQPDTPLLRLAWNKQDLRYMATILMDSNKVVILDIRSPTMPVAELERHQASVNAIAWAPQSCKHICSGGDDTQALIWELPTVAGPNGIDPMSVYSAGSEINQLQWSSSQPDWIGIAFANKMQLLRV
# [2] = molecular target: T2, 4HA-TTG1^S215A (Arabidopsis thaliana) (UniProt Q9XGN1); assay: as above
# T2 sequence: T1 sequence with S215A
# [3] = molecular target: T3, 4HA-TTG1^S215E (Arabidopsis thaliana) (UniProt Q9XGN1); assay: as above
# T3 sequence: T1 sequence with S215E
# [4] = molecular target: T4, MBP-TTG1^S215E (Arabidopsis thaliana) (UniProt Q9XGN1); assay: pull-down; MBP, MBP-TTG1, MBP-TTG1^S215E and MBP-TTG1^S215A on amylose beads as baits; TT2-His as prey, detected with anti-His; both purified
# T4 sequence: T1 sequence with S215E
# [5] = molecular target: T5, TTG1^S215E fused to cYFP (Arabidopsis thaliana) (UniProt Q9XGN1); assay: split reporter; BiFC: cYFP and nYFP fusions co-expressed in Nicotiana benthamiana leaf epidermal cells by Agrobacterium infiltration, confocal microscopy 2 days after infiltration
# T5 sequence: T1 sequence with S215E
binder,measurement,setting,value
B1,binding,[1],binds
same,binding,[2],binds
same,binding,[3],no binding
B2,binding,[4],no binding
B3,binding,[5],no binding
